The list shows a part of the results. Cut-off read from the data, not from the text of the source: active = 3.2 or more and inactive = the rest. The signal is at background level for most entries.
Assays:
Test in all cases: enrichment score (SH2-bound / input frequency) (ratio); bacterial display of known human phosphotyrosine sites (pTyr-Var adds point mutants) read by sequencing; higher = stronger binding; tyrosines were phosphorylated by kinases first
Conditions in all cases: peptide library: pTyr-Var
[1] = target: SHP2 C-SH2 domain E139D
[2] = target: SHP2 C-SH2 domain wild-type
[3] = target: SHP2 N-SH2 domain L43F
[4] = target: SHP2 N-SH2 domain T42A
[5] = target: SHP2 N-SH2 domain T52S
[6] = target: SHP2 N-SH2 domain wild-type
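Note: displayed peptides selected on beads carrying the immobilized SH2 domain, with library peptides lacking any tyrosine serving as negative controls.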

Binder	enrichment score [1]	enrichment score [2]	enrichment score [3]	enrichment score [4]	enrichment score [5]	enrichment score [6]
IGNGYYFRVFS [MYBPC3_Y1136]	inactive: 0.556	inactive: 0.828	inactive: 0.831	inactive: 0.668	inactive: 0.63	inactive: 0.814
QWRTKYEMDAI [MYH7_Y1375_T1377M]	inactive: 1.1	inactive: 1.14	inactive: 0.966	inactive: 0.972	inactive: 1.23	inactive: 1.03
TNYRLYLRSLE [MTM1_Y71]	inactive: 1.15	inactive: 1.22	inactive: 1.13	inactive: 0.905	inactive: 1.12	inactive: 0.98
IIGNGYYFHVF [MYBPC3_Y1135_R1138H]	inactive: 0.948	inactive: 1.13	inactive: 0.901	inactive: 1.17	inactive: 1.03	inactive: 1.26
EPAVLYNLKDR [MYH7_Y103]	inactive: 1.08	inactive: 0.692	inactive: 0.697	inactive: 0.568	inactive: 0.727	inactive: 0.594
ACQSLYGGFVE [MVD_Y164_R161Q]	inactive: 1.28	inactive: 0.896	inactive: 0.941	inactive: 0.846	inactive: 0.904	inactive: 0.875
NFDLDYDSVQP [MYC_Y16_YF]	inactive: 0.685	inactive: 0.655	inactive: 0.544	inactive: 0.549	inactive: 0.853	inactive: 0.811
TNYPLYLRSLE [MTM1_Y71_R69P]	inactive: 1.07	inactive: 1.04	inactive: 1.34	inactive: 0.778	inactive: 0.883	inactive: 1.04
IRQDDYESLKE [MTR_Y921_H920D]	inactive: 0.775	inactive: 0.585	inactive: 0.709	inactive: 0.732	inactive: 0.643	inactive: 0.67
FTNRSYDLDFD [MYC_Y12_N11S_YF]	inactive: 0.737	inactive: 0.709	inactive: 0.849	inactive: 0.894	inactive: 0.716	inactive: 0.842
SSAAGYACLAF [MVD_Y131_YF]	inactive: 1.39	inactive: 2.68	active: 3.3	active: 8.04	active: 3.29	inactive: 2.17
TNFRFYLRSLE [MTM1_Y71_L70F_YF]	inactive: 0.805	inactive: 0.889	inactive: 0.947	inactive: 0.871	inactive: 0.8	inactive: 1.1
PNRILYGDFRQ [MYH6_Y717]	inactive: 0.982	inactive: 1	inactive: 0.905	inactive: 1.05	inactive: 0.926	inactive: 0.945
IRQGHYESLKE [MTR_Y921_D919G]	inactive: 0.695	inactive: 0.792	inactive: 0.717	inactive: 0.664	inactive: 0.596	inactive: 0.84
TNYRFYLRSLE [MTM1_Y71_L70F]	inactive: 0.986	inactive: 0.894	inactive: 0.839	inactive: 0.89	inactive: 0.938	inactive: 1.02
RMETAYGPSVT [MXRA5_Y2717_E2716A]	inactive: 1.02	inactive: 0.65	inactive: 0.541	inactive: 0.391	inactive: 0.488	inactive: 0.484
IGNGYYFHVFS [MYBPC3_Y1136_R1138H]	inactive: 1.52	inactive: 2.34	inactive: 1.41	inactive: 1.52	inactive: 1.78	inactive: 1.58
TNFRLYLRSLE [MTM1_Y71_YF]	inactive: 1.6	inactive: 1.51	inactive: 1.7	inactive: 1.43	inactive: 1.31	inactive: 1.56
QMQNPYSRHSS [MUC13_Y501]	inactive: 0.659	inactive: 0.716	inactive: 0.771	inactive: 0.451	inactive: 0.909	inactive: 1.03

Binder	enrichment score [1]	enrichment score [2]	enrichment score [3]	enrichment score [4]	enrichment score [5]	enrichment score [6]
IFCIQYNIRAF [MYH4_Y820]	inactive: 2.54	inactive: 2.81	inactive: 2.87	inactive: 1.99	inactive: 2.89	inactive: 2.54
FTNRNYDLDFD [MYC_Y12_YF]	inactive: 0.891	inactive: 0.752	inactive: 0.748	inactive: 0.604	inactive: 0.698	inactive: 0.826
TNYCLYLRSLE [MTM1_Y71_R69C]	inactive: 1.1	inactive: 1.48	inactive: 1.1	inactive: 1.1	inactive: 1.26	inactive: 1.43
EAVLHYKHQNQ [MTOR_Y1804]	inactive: 1.16	inactive: 1.11	inactive: 1.14	inactive: 1.04	inactive: 0.99	inactive: 0.955
SKLTIYDGRPS [MTM1_Y277_A279G]	inactive: 0.821	inactive: 0.798	inactive: 0.685	inactive: 0.73	inactive: 0.812	inactive: 0.853
IFCIQYNICAF [MYH4_Y820_R823C]	active: 4.92	active: 3.52	active: 3.89	active: 3.78	active: 3.7	active: 3.82
KDDEKYLDVIR [MTM1_Y260]	inactive: 0.694	inactive: 0.676	inactive: 0.679	inactive: 0.724	inactive: 0.769	inactive: 0.769
TNFCLYLRSLE [MTM1_Y71_R69C_YF]	inactive: 1.33	inactive: 1.41	inactive: 1.23	inactive: 0.868	inactive: 1.15	inactive: 1.59
LNCAGYCDALE [MTUS1_Y151]	inactive: 1.82	inactive: 1.66	inactive: 1.77	inactive: 1.39	inactive: 1.9	inactive: 1.85
ITGNGYYFRVF [MYBPC3_Y1135_I1131T]	inactive: 0.593	inactive: 0.941	inactive: 0.822	inactive: 0.611	inactive: 0.611	inactive: 0.986
ETMNKYHLSGR [MYEF2_Y164_D165H]	inactive: 0.623	inactive: 0.655	inactive: 0.829	inactive: 0.661	inactive: 0.661	inactive: 0.878
FPPISYLHAIS [MVD_Y276_N278H]	inactive: 1.16	inactive: 0.956	inactive: 0.959	inactive: 1.28	inactive: 1.02	inactive: 1
FTNRSYDLDYD [MYC_Y12_N11S]	inactive: 0.67	inactive: 0.591	inactive: 0.445	inactive: 0.645	inactive: 0.687	inactive: 0.615
ITGNGYFFRVF [MYBPC3_Y1135_I1131T_YF]	inactive: 0.635	inactive: 0.9	inactive: 0.834	inactive: 0.647	inactive: 0.653	inactive: 0.77
VHSGTYQVMVR [MYBPC3_Y1043_T1046M]	inactive: 1.01	inactive: 0.925	inactive: 0.889	inactive: 0.914	inactive: 0.984	inactive: 0.829
KWKQKYEESQS [MYH6_Y1462_E1457K]	inactive: 1.54	inactive: 1.63	inactive: 1.62	inactive: 1.68	inactive: 1.67	inactive: 1.55
PIPIKYKAMKK [MYD88_Y257_L252P]	inactive: 1.19	inactive: 0.907	inactive: 0.939	inactive: 1.05	inactive: 0.892	inactive: 1.36
RNNTEYVRDIG [MUSK_Y577_I575T]	inactive: 0.407	inactive: 0.46	inactive: 0.525	inactive: 0.473	inactive: 0.457	inactive: 0.562

— the supplement of paper PMC10369915
